Article PMC4336329 (PLoS ONE, 2015)
About 14,000 (4.5%) of roughly 310,000 compounds showed an effect of 50% or more. The effect is printed as a negative number. Some of the results follow.

Molecular target: human ether-à-go-go-related gene (hERG) potassium channel (human, UniProt Q12809)
Test: primary screen, population patch clamp on CHO cells stably expressing hERG
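Also: peak tail current of the secondary pulse compared with the same well before compound.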

Chain of human ether-à-go-go-related gene (hERG) potassium channel (Q12809 whole entry, looked up): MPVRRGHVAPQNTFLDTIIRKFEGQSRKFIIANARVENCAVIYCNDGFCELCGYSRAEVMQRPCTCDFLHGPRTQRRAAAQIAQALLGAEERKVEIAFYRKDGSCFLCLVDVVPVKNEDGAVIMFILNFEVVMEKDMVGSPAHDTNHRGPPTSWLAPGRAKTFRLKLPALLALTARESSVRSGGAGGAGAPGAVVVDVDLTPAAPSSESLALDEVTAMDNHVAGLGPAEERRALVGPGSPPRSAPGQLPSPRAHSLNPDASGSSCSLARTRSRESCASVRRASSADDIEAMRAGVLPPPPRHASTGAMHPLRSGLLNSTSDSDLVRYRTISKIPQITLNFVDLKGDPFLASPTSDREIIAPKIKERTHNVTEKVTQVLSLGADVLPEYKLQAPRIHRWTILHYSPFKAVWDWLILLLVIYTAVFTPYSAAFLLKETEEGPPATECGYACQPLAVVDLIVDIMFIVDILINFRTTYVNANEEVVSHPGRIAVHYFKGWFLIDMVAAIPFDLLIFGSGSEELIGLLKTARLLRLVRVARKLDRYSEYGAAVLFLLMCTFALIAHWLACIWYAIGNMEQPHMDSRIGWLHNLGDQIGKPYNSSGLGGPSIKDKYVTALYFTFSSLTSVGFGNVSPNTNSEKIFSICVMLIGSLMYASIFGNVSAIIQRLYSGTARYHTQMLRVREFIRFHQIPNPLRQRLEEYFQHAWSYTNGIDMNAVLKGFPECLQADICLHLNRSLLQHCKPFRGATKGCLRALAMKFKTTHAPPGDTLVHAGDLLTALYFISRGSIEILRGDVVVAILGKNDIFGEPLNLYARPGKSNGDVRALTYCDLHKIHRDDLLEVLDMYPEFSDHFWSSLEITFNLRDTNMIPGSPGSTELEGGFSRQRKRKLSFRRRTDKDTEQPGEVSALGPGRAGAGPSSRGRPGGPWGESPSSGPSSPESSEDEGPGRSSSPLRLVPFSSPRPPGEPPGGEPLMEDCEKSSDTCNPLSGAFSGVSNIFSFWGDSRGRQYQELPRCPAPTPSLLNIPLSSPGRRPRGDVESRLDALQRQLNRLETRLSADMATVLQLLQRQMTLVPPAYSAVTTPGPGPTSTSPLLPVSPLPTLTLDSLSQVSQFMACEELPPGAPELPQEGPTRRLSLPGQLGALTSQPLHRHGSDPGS

SMILES | hERG current change (%, negative = inhibition) at 10uM
CCS(=O)(=O)N1Cc2ccccc2CC1C(=O)Nc1nc2ccccc2s1 (centres unmarked) | -5.72%
C/C=C\C(=O)Nc1cccc(C2=NOC3(C2)C[C@@H](C(N)=O)N(C(=O)c2ccccc2)C3)c1 (some centres unmarked) | 16.8%
CCOCCCNCc1ccc(OCc2ccc(F)cc2)c(OC)c1.Cl | -33.6%
Cc1cccc(OCCN2C(=O)c3ccccc3C2=O)c1 | 9.51%
CN1CCN(S(=O)(=O)c2cccc(C(=O)Nc3cc(Cl)ccc3N3CCOCC3)c2)CC1 | -42.3%
Cc1ccc2c(c1)S/C(=C\c1cccc[n+]1C)N2CCO.[I-] | -0.805%
Cc1cc(C)nc(SCC2COc3ccccc3O2)n1 (centres unmarked) | -8.2%
CCOC(=O)C1CCN(C(=O)c2cc3c(OC)c(OC)c(OC)cc3[nH]2)CC1 | 15.5%
CC(C)COc1cccc(C(=O)Nc2ccc(S(=O)(=O)N3CCOCC3)cc2)c1 | -1.52%
CSc1ccc(C(=O)C2CCCN(Cc3cccnc3)C2)cc1 (centres unmarked) | -53%
CCc1ccc(C(=O)CSc2nc3cc(S(=O)(=O)N4CCOCC4)ccc3n2CC)cc1 | -4.19%
COC(=O)CSc1nc(N)c(C#N)c(C(C)C)c1C#N | -8.45%
CC(C)C(NC(=O)CNC(=O)OC(C)(C)C)C(=O)NCc1ccc(Cl)cc1 (centres unmarked) | 1.18%
Cc1cccc(S(=O)(=O)Nc2cccc(-c3cn4ccsc4n3)c2)c1 | -4.76%
CCOc1nc(Nc2ccccc2)nc(OCC)n1 | -21.7%
Cc1cc(C)nc(Nc2ccc(F)cc2)n1 | 8.78%
Fc1ccc(Nc2ccc(-c3ccc(F)cc3)nn2)cc1 | -2.84%
CC1(C)Cc2cccc(OCC(=O)Nc3ccccc3C(F)(F)F)c2O1 | -15.5%
Cc1ccc(/C=N/NS(=O)(=O)c2ccc([N+](=O)[O-])cc2)o1 | 26.4%
C/C(N)=C(/C#N)C(=O)COc1ccc(Cl)cc1Cl | -23.3%
COc1ccc(-c2cn(-c3ccc(C)c(C)c3)c(=S)[nH]2)cc1OC | 7.67%
COc1cccc(-c2nc(C#N)c(N3CCN(C(=O)c4ccco4)CC3)o2)c1 | -35.1%

SMILES | hERG current change (%, negative = inhibition) at 10uM
O=C(c1ccc(NS(=O)(=O)c2cccc3cccnc23)cc1)N1CCCCC1 | 12%
CCOC(=O)N1CCN(CC(O)COCCC23CC4CC(CC(C4)C2)C3)CC1.Cl (centres unmarked) | -35%
CCSC1(SCC)N=C(N)C2(C#N)C(c3ccc(F)cc3)C12C#N (centres unmarked) | -10.8%
COc1ccc(NC(=O)c2ccc(NC3CC(=O)N(c4ccc(C)cc4C)C3=O)cc2)cc1 (centres unmarked) | 1.91%
CCc1ccc(NC(=O)CSC2=C(C#N)C(c3ccc4c(c3)OCO4)CC(=O)N2)cc1 (centres unmarked) | 8.18%
COc1ccccc1Nc1nc(NCc2ccco2)c2ccccc2n1.Cl | -20.3%
CCOc1ccc2[nH]c(=O)c(C(c3nnnn3C3CCCCC3)N3CCN(CC)CC3)cc2c1 (centres unmarked) | -40.3%
Cc1cc(OC(C)C)c2c(-c3ccccc3)cc(=O)oc2c1 | 16.2%
CC(Oc1cccc(Cl)c1)C(=O)Nc1ccc(S(=O)(=O)N(C)C2CCN(C)CC2)cc1 (centres unmarked) | -24.9%
CCOC(=O)Nc1ccc2c(c1)N(C(=O)N1CCN(C)CC1)c1ccccc1S2.Cl | -46%
NNC(=O)COc1ccc(C2SCCS2)cc1 | 8.44%
Cc1ccc(CSc2nnc(C)c(=O)[nH]2)cc1 | 10.9%
CC(NC(=O)CC(c1ccccc1)c1cc(Cl)ccc1O)c1ccccc1 (centres unmarked) | -14.7%
OC(COc1ccccc1)Cn1c2ccccc2c2ccccc21 (centres unmarked) | 6%
Cc1ccc(N2C(=O)CC(Sc3ccccc3C(=O)O)C2=O)cc1C (centres unmarked) | 19.3%
COc1ccc(S(=O)(=O)Nc2ccc(S(=O)(=O)Nc3ccc(F)cc3)cc2)cc1C | -16.9%
COc1ccc(OCc2cnc(Cl)s2)cc1 | 8.9%
CC(=O)Nc1ccc(S(=O)(=O)/N=C2\C(=O)c3ccccc3C([O-])=C2n2cc[n+](-c3ccccn3)c2)cc1 | 2.09%
O=C(Cn1cnc2c(nnn2Cc2ccccc2F)c1=O)NCC1CCCO1 (centres unmarked) | -3.88%
CSc1nc(Oc2ccc(F)cc2)c2ccccc2n1 | 11.2%
O=C(c1ccc(S(=O)(=O)NCc2ccco2)cc1)N1CCN(Cc2ccccc2)CC1 | 2.86%
CCOC(=O)N1CCC(NC(=O)C2CCN(C(=O)N3CC(C)Oc4ccc(C)cc43)CC2)CC1 (centres unmarked) | -21.4%
